# Experimental data taken from the supplement of paper PMC12217912.
# The other results are listed elsewhere or left out. The full chains were built here from the parent and the listed change. Values near 0.05 are background.
# B1: TEV protease; numbered along this chain (parent)
# chain: MGESLFKGPRDYNPISSSICHLTNESDGHTTSLYGIGFGPFIITNKHLFRRNNGTLVVQSLHGVFKVKDTTTLQQHLVDGRDMIIIRMPKDFPPFPQKLKFREPQREERICLVTTNFQTKSMSSMVSDTSCTFPSGDGIFWKHWIQTKDGQCGSPLVSTRDGFIVGIHSASNFTNTNNYFTSVPKNFMELLTNQEAQQWVSGWRLNADSVLWGGHKVFMVKPEEPFQPVKEATQL
# Variants of: B1
# Assay: raw area under fraction-flipped curve 0-4 h after induction (AUC4h, not background-subtracted), DNA-recorder readout of cleavage of the substrate (dimensionless); higher = more cleavage of the substrate by the protease variant
# Details: temperature: 34 °C; time window: 0-4 h after rhamnose induction
# 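Further: Bxb1 expression induced with 0.2% (w/v) L-rhamnose at OD600 near 0.5, cultures sampled hourly, flipped fraction per protease–substrate barcode pair counted by paired-end Illumina sequencing.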
Variant,area with substrate ENLYFQD,area with substrate ENLYFQG,area with substrate ENLYFQH,area with substrate ENLYFQI,area with substrate ENLYFQK,area with substrate ENLYFQM,area with substrate ENLYFQN,area with substrate ENLYFQP,area with substrate ENLYFQQ,area with substrate ENLYFQR
T71G,0.063,0.0482,0.06,0.0657,0.0677,0.0649,0.0797,0.0288,0.0601,0.0716
F117A,0.0764,–,–,–,–,–,0.095,–,0.0681,–
K66G,0.0691,0.102,0.0839,0.0618,0.0622,0.0889,0.0733,–,–,0.0598
Q198H,–,–,–,–,–,0.063,0.073,–,–,0.059
E231F,0.0716,0.0865,0.0763,–,0.0591,0.0824,0.0658,0.067,–,–
M125I,–,0.0947,–,0.074,–,0.0941,–,–,–,–
E224G,0.0773,0.0844,–,0.0575,–,0.0923,–,–,–,–
V67N,0.057,–,0.0503,0.0536,0.0489,–,0.0624,0.0439,–,0.0646
P225Q,–,–,0.0676,–,–,–,0.0609,–,–,0.0556
P225H,0.0653,0.0958,0.0561,–,0.0482,0.0781,–,0.0556,–,–
N178D,–,0.0607,0.0692,0.0489,0.0564,0.0412,–,–,0.0707,0.0554
N178H,0.0802,–,–,0.0471,–,0.0946,0.0839,–,0.064,–
N178G,–,–,–,0.0576,–,–,–,0.0439,–,0.0718
R109V,–,0.068,0.0845,–,0.0686,–,0.0796,–,0.0839,0.0854
G213V,–,0.0619,–,–,–,–,0.0594,–,–,–
S171A,0.0702,0.0876,0.0726,0.0515,–,–,–,–,0.0713,–
W212P,–,–,0.0422,–,–,–,–,0.0731,0.0492,0.0554
N172T,–,0.0653,–,0.0627,0.0459,–,–,–,0.0686,0.056
P228G,–,–,–,–,0.0591,0.0817,0.0509,–,–,0.0588
P228L,–,–,–,0.0533,–,–,0.0946,–,–,–
Q75I,–,0.0822,–,0.0495,0.0683,–,–,–,–,–
G202T,0.048,–,0.0687,0.049,0.0808,–,–,–,0.0771,0.0598
K185H,–,0.11,0.0879,–,–,–,–,–,–,0.0646
K90R,–,0.084,–,0.0619,0.0751,0.08,–,–,–,–
I139C,0.0843,0.102,–,–,0.0605,0.108,0.0929,0.0569,–,0.0671
Q74K,0.0718,0.102,0.0817,0.0839,–,0.0896,0.0722,0.0412,–,0.0697
Q146S,–,–,–,–,0.0566,–,–,–,–,–
D69Y,–,–,0.0516,–,0.0584,–,–,–,–,0.0765
G8Y,–,–,–,–,–,–,0.0693,–,–,–

# Same assay, conditions: temperature: 34 °C; time window: 0-4 h after rhamnose induction
Variant,area with substrate ENLYFQS,area with substrate ENLYFQT,area with substrate ENLYFQV,area with substrate ENLYFQW,area with substrate ENLYFQY,area with substrate ENLYFQL,area with substrate ENLYFQF
T71G,0.0801,0.0708,0.0727,0.0571,0.0694,–,–
F117A,0.0966,0.0602,0.0891,–,0.117,–,–
K66G,0.101,0.0791,0.0619,0.0647,–,0.0683,–
Q198H,0.109,0.0706,–,0.0816,–,0.0551,–
E231F,0.0869,0.0589,0.0566,–,–,0.019,–
M125I,0.0995,–,–,–,–,0.053,–
E224G,0.101,–,0.0531,–,0.0637,0.0501,–
V67N,0.0729,0.0495,–,–,–,–,0.0885
P225Q,0.1,–,–,0.0715,–,0.0601,–
P225H,0.0947,0.0759,–,0.0586,–,–,–
N178D,0.0656,0.0525,–,–,0.0614,0.0507,–
N178H,0.118,–,–,0.0515,–,–,0.0727
N178G,0.116,–,0.064,–,–,–,0.074
R109V,0.0903,0.0734,0.0535,0.0764,–,0.0613,0.0837
G213V,0.0598,–,–,0.0279,–,–,–
S171A,0.0909,–,0.0486,–,–,–,0.0804
W212P,0.0602,–,–,0.0747,0.052,0.0275,–
N172T,0.0702,–,–,0.0477,–,0.048,–
P228G,0.106,–,–,0.0671,–,0.0523,0.0874
P228L,0.102,–,–,0.0718,0.0747,–,0.0742
Q75I,0.084,–,–,–,–,–,–
G202T,0.0689,0.0554,–,–,–,0.0514,–
K185H,0.115,–,–,–,–,–,–
K90R,0.103,–,–,0.0735,–,0.0602,–
I139C,0.122,0.0818,–,–,0.119,0.0595,–
Q74K,0.0982,0.065,–,–,–,0.0589,–
Q146S,0.0945,0.0458,–,–,–,0.0453,–
D69Y,0.0811,0.0654,–,0.056,–,0.0287,–
G8Y,0.0841,–,–,0.0587,0.0637,–,–
